From PubChem BioAssay AID463173 (ICCB-Longwood Screening Facility, Harvard Medical School, 2010)
Out of some 52,000 compounds screened, about 1,700 (3.3%) were called active. Rule as the data show it: active = survival mostly below about 52% (no sharp cut-off); inactive = mostly above about 56%. The list shows a part of the results.

These compounds were tested on Wild type (assay: S. aureus survival, RN4220 and DeltatarO strains – OD600, teichoic acid synthesis inhibitors, primary screen (AID 463173)). Details: S. aureus RN4220 wild type/DeltatarO growth, OD600, 18 h, hits give low values, screened at 18.75 µg/mL (by protocol).
With `Cc1cccc(NC(=O)C2CCCN2S(=O)(=O)c2cccc3nsnc23)c1C` (stereo unspecified) the survival was inactive: 72%. For `CCC1=C(c2ccc(C)cc2)S(=O)(=O)N=C1N1CCC(C(=O)Nc2ccccc2C(=O)OC)CC1`, the survival was inactive: 71%. With `CN(C)c1ccc(C(CNC(=O)c2ccc(C(C)(C)C)cc2)N2CCCC2)cc1` (stereo unspecified) the survival was inactive: 101%. For `Cc1cn2c(=O)cc(COc3ccc(NC(=O)c4ccc(C(C)(C)C)cc4)cc3)nc2s1`, the survival was inactive: 129%. For `COc1ccc(CNC(=O)CCc2c(C)nn(-c3ccc(N4CCOCC4)nn3)c2C)c(OC)c1`, the survival was inactive: 58%. With `CCOC(=O)c1ccc(NC(=O)CN2C(=O)C(C)(C)c3ccccc32)cc1` the survival was inactive: 111%. `CCc1nc(C)ccc1O` was tested, and the survival was inactive: 103%. With `Cc1ccc(C)c(NC(=O)c2cnn(-c3ccc(F)cc3F)c2C2CCNCC2)c1` the survival was inactive: 77%. `Fc1ccccc1C(NCCc1ccc(Cl)cc1)c1nnc(-c2ccccc2)o1` (stereo unspecified) was tested, and the survival was active: -1%. With `CCCC12CN3CC(CCC)(CN(C1)C3c1ccc(OCc3ccccc3)cc1)C2=O` (stereo unspecified) the survival was inactive: 117%. `Cc1cccc(C)c1NC(=O)CCSc1nc(-c2ccc3c(c2)OCO3)cc(C(F)(F)F)n1` was tested, and the survival was inactive: 73%. For `O=C(CSc1ncc2c(n1)-c1ccccc1N(Cc1ccc(Cl)cc1)S2(=O)=O)c1ccc(Cl)cc1`, the survival was inactive: 79%. In the case of `O=C(Cn1nc(-c2ccccc2)ccc1=O)NCC1COCCO1` (stereo unspecified), the survival is reported as inactive: 113%. In the case of `COc1ccccc1NC(=O)CN(C)S(=O)(=O)c1cccc2cccnc12`, the survival is reported as inactive: 117%. For `Cc1ccc(Nc2ccc(N3CCN(C(=O)c4cccc([N+](=O)[O-])c4)CC3)nn2)cc1`, the survival was inactive: 87%. With `O=C(COc1ccc(F)cc1)Nc1ccc(OCc2cc(=O)n3ccsc3n2)cc1` the survival was inactive: 86%. For `Cc1cccc(NC(=O)c2cccc(N3CCCS3(=O)=O)c2)c1`, the survival was inactive: 83%. With `COc1ccc(NS(=O)(=O)c2cc(-c3onc(C)c3C)ccc2C)c(OC)c1` the survival was inactive: 80%. For `CCC1CN(C(=O)N2CCC(C(=O)NCCCc3ccccc3)CC2)c2cc(C)ccc2O1` (stereo unspecified), the survival was inactive: 79%. With `Cc1ccc(CNC(=O)CN2Cc3ccccc3C2=O)cc1` the survival was inactive: 76%. In the case of `Cc1ccccc1NC(=O)Cn1c(=O)n(CCC(=O)N2CCc3ccccc3C2)c(=O)c2ccccc21`, the survival is reported as inactive: 87%. In the case of `COc1ccc(NC(=O)CCS(=O)(=O)c2cc3c(cc2C)NC(=O)CO3)cc1Cl`, the survival is reported as inactive: 116%. In the case of `Cc1ccc(C2CC(=O)n3nc(-c4ccc(F)cc4)nc3S2)cc1` (stereo unspecified), the survival is reported as inactive: 76%. For `CCOC(=O)c1ccccc1NC(=O)N(Cc1ccc(CC)cc1)Cc1cn[nH]c1-c1ccc(OC)cc1`, the survival was inactive: 81%. `Cc1ccc(Cl)cc1NC(=O)c1sc2nc(C)c(C)c(C)c2c1N` was tested, and the survival was inactive: 104%. For `CCCc1cnc2c(c1SCC(=O)Nc1ccc([N+](=O)[O-])cc1)c(=O)n(C)c(=O)n2C`, the survival was inactive: 87%. With `COc1ccc(C2c3c(-c4ccccc4)n[nH]c3C(=O)N2c2ccc(C(=O)O)cc2)c(OC)c1` (stereo unspecified) the survival was inactive: 82%. In the case of `Cc1ccc(NC(=O)Cn2c(=O)n(CCC(=O)N3CCc4ccccc4C3)c(=O)c3ccccc32)c(C)c1`, the survival is reported as inactive: 79%. For `COc1ccc(-n2nc(C(=O)NCCc3ccc(Cl)cc3)c3c4ccccc4n(C)c3c2=O)cc1`, the survival was inactive: 83%. `Cc1ccc(-c2cnc(C3CC3)o2)cc1S(=O)(=O)Nc1cccc(C#N)c1` was tested, and the survival was inactive: 124%. `COc1cc(NC(=O)Cn2c(-c3ccccc3)cc(C(C)=O)c2C)cc(OC)c1` was tested, and the survival was inactive: 92%. `CNc1nc(SCC(=O)OC)nc(N2CCOCC2)n1` was tested, and the survival was inactive: 105%. With `Cc1ccc(-c2c(CN3CCN(c4cccc(C)c4C)CC3)csc2C)cc1` the survival was inactive: 64%. In the case of `CN(Cc1ccccc1)C(=O)CSc1c2c(nc3ccc(Cl)cc13)CCCC2`, the survival is reported as active: 0%. `O=C(c1cccnc1Nc1ccccc1F)N1CCCCC1` was tested, and the survival was inactive: 109%. `Cc1cccc(C)c1NC(=O)CSc1nc(-c2cccs2)cc(C(F)(F)F)n1` was tested, and the survival was inactive: 83%. In the case of `CC(C)NC(=O)CCSc1nc(-c2ccc3c(c2)OCO3)cc(C(F)(F)F)n1`, the survival is reported as inactive: 77%. `CC(C)CCn1c(SCc2c(F)cccc2Cl)nc2ccsc2c1=O` was tested, and the survival was inactive: 73%. With `Cc1cn2c(=O)cc(COc3ccc(C(C)(C)C)cc3)nc2s1` the survival was inactive: 65%. For `COc1ccc(CCN(Cc2nc3ccccc3c(=O)[nH]2)C(=O)c2ccco2)cc1`, the survival was inactive: 81%. For `O=C(Nc1ccc(F)c(Cl)c1)C1CCCN(S(=O)(=O)c2cccc3nsnc23)C1` (stereo unspecified), the survival was inactive: 73%. With `CCOc1ccccc1N(CC)C(=O)c1ccc2c(=O)n3c(nc2c1)CCCCC3` the survival was inactive: 123%. For `Nc1nonc1-c1nc2ccccc2n1CC(=O)Nc1ccccc1C(=O)O`, the survival was inactive: 66%. In the case of `CC1=C(C(=O)N2CCCCC2)C(c2ccc(N(C)C)cc2)C2=C(CCCC2=O)N1` (stereo unspecified), the survival is reported as inactive: 110%. With `CN(C)S(=O)(=O)N1CCC(N2CCN(Cc3ccc(F)cc3)C(=O)C2=O)CC1` the survival was inactive: 132%. `CCOc1ccc(CCNC(=O)CSCc2nc(-c3cccc(C)c3)oc2C)cc1OCC` was tested, and the survival was inactive: 80%. With `N#Cc1ccccc1Cn1c(SCC(=O)NCc2ccccc2)nc2ccccc21` the survival was inactive: 75%. For `CCc1cccc2c(-c3ccccc3)nc(SCC(=O)Nc3ccc(OC)cc3)nc12`, the survival was inactive: 98%. For `CCOc1ccc2nc(NC(=O)c3nc(SC(C)C)ncc3Cl)sc2c1`, the survival was inactive: 71%. In the case of `CC1CCN(C(=O)Cn2c(=O)n(-c3ccc(Cl)cc3)c(=O)c3c4c(sc32)CCC4)CC1`, the survival is reported as inactive: 79%. With `COCCNC(=O)C1CC(=O)N(c2ccc(C)cc2)C1` (stereo unspecified) the survival was inactive: 121%. In the case of `O=C(Cn1c(=O)c2cccn2c2ccc(F)cc21)NCc1cccc(Cl)c1`, the survival is reported as inactive: 87%. With `CCCNS(=O)(=O)c1ccc(OCC(=O)N2CCCCC2)cc1` the survival was inactive: 123%. `CN(C)S(=O)(=O)c1ccc(C(=O)N(Cc2cccnc2)c2nc3c(F)cc(F)cc3s2)cc1` was tested, and the survival was inactive: 68%. `CC(C)N(Cc1ccccc1)S(=O)(=O)c1ccc(N2CCCCS2(=O)=O)cc1` was tested, and the survival was inactive: 77%. With `Cc1cc2nn(-c3ccccc3)nc2cc1NC(=O)Cc1ccc(Cl)cc1` the survival was inactive: 92%.
